# Measured values published in the RNAGym collection of RNA variant scans (doi:10.7554/elife.90254).
# Read counts are not given, so values of variants with three or more changes are uncertain.
# B1: LINE1-full (parent)
# chain: UACGUAGGUGGUUUUCCCCUGAUAGUGCUAAGGGGGCCUGGAAGUUUGGACUGGGCAGAGCUCAACACAGCGUGGCAAAGUGGCUGUGGCUAGACUGCCUCUCUGGAUUCCUCGUCACUCAGCAGGGCAUCUCUGAGAGAAAUGCC
# Variants of: B1
# Experiment: self-cleavage, relative activity (ratio to wild type); higher = more cleavage; in vitro, sequencing; the parent is a self-cleaving ribozyme
row,Variant,self-cleavage
1,G4A U39C U130C,1.31
2,A22G U87A A107G G122A A138G,0
3,A94G A129U A138G,0.19
4,A57C G72A U134C,0.05
5,U9C G11A U45A A136U,1.23
6,U14C A42G U62C A121G,0
7,U13A U39C A50U A79G A117G,0
8,U13C G27A G34U A57G U73A U115C U130C,1.29
9,A30G U73C U134C,2.76
10,U47C U87C C98U U104C A129G,0
11,U45A A79G U85A G86U,0.05
12,U14C U23C U26C A65U A141G,0.59
13,A42G C61U U100C,0.1
14,U9C U13C A142G,1.64
15,U39A A79G A142U C145U,1.53
16,G11A U15A G40U A142G U143C,0
17,U14A C18A A141G,0.74
18,U62C A69G G88U U100C C101A U102C,0
19,U13C U96C G122U A136G U143C,0.3
20,C118U U132C A138U,0.9
21,A59G U73C C110A U134A,0
22,A50G A117G U119C U143A,1.31
23,U13C U45C U85C,0.88
24,A24G A57U A64G A67G G97U C118U A138G,0.19

row,Variant,self-cleavage
1,U20C A77G U81A,2.45
2,G33U A64G U108C A141C,0
3,U29C A43G C71A U96C A138U,0.12
4,U12C G40A U62C,0.06
5,A22U A43U A79U A124G,1.19
6,U47C U130C A140G,2.45
7,A42G U62C U132C A138G,0.07
8,U20A A43G U115A,0.21
9,U12C U29C U96A,0.18
10,U52A U62C U91C U108C C110A,0.09
11,A31G A92G U132C A136G,0.48
12,C17U C18A A31G C90U C120U U130C,0.04
13,U12C G58A G75A A140G,0.08
14,A22G A79G A129U U134C A140G,0.57
15,U14C G58U C120U,0.12
16,G74A A78G U96C U109A,0.05
17,C19U U46C A64U U73A A107G,0.51
18,U15C A30G U39A U47A G135A,0.36
19,A50C A79G U87A,0
20,C71U G106U A141G,0.54
21,C63U U115C U119G A121G,0.23
22,U29A A92G U108A U112A A136G,0.23
23,U52A A57G G70U A141G,0.03
24,C3U U81C A121U,0.29

row,Variant,self-cleavage
1,C61A A64G U104A G114A,0.05
2,U9C A30U A43G U52A,1.17
3,U46A A65G A94C,0.03
4,A78G A92G A117G,0
5,A43G U73A U87A A136G A140U A141G,0.03
6,U46C G60U A67G,0
7,U9G U13C A117U,1.7
8,U100C A107G G125U U134G,2.34
9,U9A U15G U45A,0.94
10,U15C U119A U130C,2.18
11,U62C U132G A140G C145A,0
12,U5A A50G U85A G105A C118A G144A,0.07
13,U46C U73A G97U,0.12
14,A78G A79G A124G A138G,0.95
15,U13C A64U U115C A136G,0.34
16,U1A A92G A129G,0.2
17,U62A A69G U87C,0.31
18,U26C U39C U62C U91C,1.15
19,A129G A138U U143C,1.61
20,U81G U85C U108C A117U,0.22
21,C99U A121G U134C G137U,0.57
22,U26A U81G U108C A117G,2.04
23,U14C U91C U96A,0.35
24,A22G C28A A138U,0.77

row,Variant,self-cleavage
1,U81A U91A A136C,0.79
2,U29C G35A U45G A65G,0.1
3,U14C U62C A136G,0.09
4,U15C A67U A107G U143C,0
5,A22U U29A A43G U62C G125A,0.05
6,U39C A77U U109A U115C A129G A140G,0.23
7,A22G U62C C63U U102A,0.06
8,U15A C133A A141G,0.69
9,U26C A43G C66U U96C,0.13
10,U47C U108C U115C,1.84
11,G27A G54U A67G C68U C71G A121G A124U,0.02
12,U1G A43G A69C A138G,0.71
13,C19A U73C A121G,2.76
14,A22G U45A A141G,0.62
15,G35A A92U A107G,0.15
16,C19U A30G A79G,0.31
17,A22G U46C A124G,1.02
18,U1C U13C U26C A67G A141G,0
19,U20A U26C G127C G135U A142G,1.4
20,U12C G36C A117G,2.2
21,U9A A59G A65U U109C,0.16
22,U13C A22G U26C A50U A77G A121U,0
23,A65G U104C U132A,0
24,A77G U102C A129U,2.36

row,Variant,self-cleavage
1,U14C G25U A67U A79G C101U,0.15
2,U46A A77G U85C A94G U130C,0
3,U20C G33A A67G G127U U143C,0.33
4,U39C U96C U119C A124U,0
5,U1C U12C C113U,0.78
6,A2G A24G A43G A59G,0
7,C18U G40C C131U,0.86
8,A31G U52C G72A,0.79
9,U14A A124U U132C U143C,0.85
10,U12C C56G U132C A141U,0.08
11,A24U A43U U46A,1.15
12,A31C U39C G72A,1.43
13,U62C U87C A136G,0
14,A79G U102C U104A A141G,2.22
15,U62C A79G U104C A140G,0
16,A43G U73C G80A U85C,0.28
17,A30G A92U U102C,0.47
18,A6G A67C U85A,0.29
19,G32A A42U A57C,0.03
20,U52C U109A U132C,1.69
21,A30U A42G G53U A79U A141G,1.01
22,U9G A141G U143C,1.02
23,A31G G36U U47C A117C G126A,1.26
24,U12A C76U A117C A138G,2.95

row,Variant,self-cleavage
1,U15C A43G G49A U102C A138G,1.34
2,G49A A57U A121G,0.03
3,U9C G36A U47A C84U U100C U104C G105C,0.19
4,U29C A124U A136G U143C,1.19
5,U23C G34A G40A A64G,0.2
6,G7U U39A G72A U81C U87C U115C,1.62
7,A69U U109A A142G,0.05
8,G114U A121G A129U,1.13
9,U13C U46C U73C A77G,1.67
10,U12G A67G G86A U115A A117G,0
11,U14C A22G U39G A129G A142G,0
12,A22G U47C U85C,0
13,U9A G32A A67U U102C,0.18
14,U81C G82A U96C U109C,0
15,U9C U85A A94G,0.36
16,U12G U23C G36A A142U,1.17
17,A43G A57G U91C,0
18,U46C U73A U100C A121G,2.87
19,U20A U47C U115A,1.76
20,U5A U14C A30G U39A A129U U134C,1.23
21,U20A G48U C56U,0.12
22,A6G G32A A138U,0.9
23,U47A A121G A138U,1.37
24,U62C A94G U143A,0

row,Variant,self-cleavage
1,A67U A77G G83A U87C,0.08
2,A42G U45C A121G,1.08
3,U14C A42G A67G,0.27
4,A59G U108C A138G,0.12
5,A59G A69G U85A A121G,0
6,U15C U91C A107G A129U,0.98
7,U13C A77U U130C U134A A140G,1.47
8,U26C A42G U132C,1.35
9,U15A A57U A79G A94C,0.15
10,C3U U46C A92U,0.28
11,U26G A43U U87A,0.15
12,U14C U39A U73C,2.22
13,U1C U20C U85C U112C,0
14,G8A G36A A129G A141G,1.97
15,A79G A129G U132C,2.16
16,A65G A69U U81C A140G,0.05
17,A24G A65G A140G,0.09
18,A22G U26C G54A U96C,0.16
19,A22G U132C G144A,1.91
20,U20C U23C A43U,1.97
21,G54A A117G A141G,0.57
22,A6G U52C U119C,0
23,U9A U26C A94C A124G A141G,0
